{
  "source": "paper PMC4336329",
  "about": "(PLoS ONE, 2015)",
  "note": "In all, about 310,000 compounds went through this assay and about 14,000 (4.5%) showed an effect of 50% or more. The effect is printed as a negative number. The list shows a part of the results.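 Note: peak tail current of the secondary pulse compared with the same well before compound.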",
  "data": [
    {"target": "human ether-à-go-go-related gene (hERG) potassium channel (human, UniProt Q12809)", "sequence (Q12809 whole entry, looked up)": "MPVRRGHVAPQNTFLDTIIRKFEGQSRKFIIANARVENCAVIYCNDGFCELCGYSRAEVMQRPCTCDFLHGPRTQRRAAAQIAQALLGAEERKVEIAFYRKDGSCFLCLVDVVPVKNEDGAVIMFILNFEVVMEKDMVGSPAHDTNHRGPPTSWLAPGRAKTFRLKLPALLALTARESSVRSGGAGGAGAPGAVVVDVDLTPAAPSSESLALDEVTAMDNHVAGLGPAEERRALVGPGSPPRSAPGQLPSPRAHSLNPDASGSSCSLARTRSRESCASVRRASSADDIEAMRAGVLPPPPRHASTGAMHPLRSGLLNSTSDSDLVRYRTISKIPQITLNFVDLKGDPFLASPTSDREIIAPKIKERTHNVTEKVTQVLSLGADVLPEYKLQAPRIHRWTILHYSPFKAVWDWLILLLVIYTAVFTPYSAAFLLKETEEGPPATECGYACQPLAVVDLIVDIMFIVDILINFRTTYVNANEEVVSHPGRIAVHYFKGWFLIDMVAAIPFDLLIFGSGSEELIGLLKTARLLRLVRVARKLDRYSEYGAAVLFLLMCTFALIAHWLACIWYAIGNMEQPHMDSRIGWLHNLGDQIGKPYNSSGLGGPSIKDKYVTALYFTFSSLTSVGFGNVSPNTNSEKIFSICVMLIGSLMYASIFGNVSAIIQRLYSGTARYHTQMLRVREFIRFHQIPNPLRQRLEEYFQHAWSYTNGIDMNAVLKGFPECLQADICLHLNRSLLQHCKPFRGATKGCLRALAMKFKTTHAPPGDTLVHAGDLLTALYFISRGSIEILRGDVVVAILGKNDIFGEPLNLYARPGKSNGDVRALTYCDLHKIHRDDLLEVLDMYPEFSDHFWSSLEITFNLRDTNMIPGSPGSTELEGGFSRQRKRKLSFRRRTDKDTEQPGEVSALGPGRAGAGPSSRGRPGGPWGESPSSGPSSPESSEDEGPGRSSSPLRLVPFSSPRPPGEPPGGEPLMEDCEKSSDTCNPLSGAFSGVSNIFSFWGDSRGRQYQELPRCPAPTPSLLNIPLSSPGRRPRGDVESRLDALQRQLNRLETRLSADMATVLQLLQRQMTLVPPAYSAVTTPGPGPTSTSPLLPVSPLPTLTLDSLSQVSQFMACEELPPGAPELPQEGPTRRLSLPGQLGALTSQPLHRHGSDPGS", "test": "primary screen, population patch clamp on CHO cells stably expressing hERG", "units": {"hERG current change (%, negative = inhibition) at 10uM": "%"}, "values": [
      {"smiles": "CC1CCCCC1NC(=O)C1CC=CCC1C(=O)O", "note": "(centres unmarked)", "hERG current change (%, negative = inhibition) at 10uM": 10.7},
      {"smiles": "CCCc1ccc2oc(C(=O)N3CCNC(=O)C3CC(=O)OC)c(C)c2c1", "note": "(centres unmarked)", "hERG current change (%, negative = inhibition) at 10uM": -5.55},
      {"smiles": "CCCCCC(=O)NC(Cc1ccc(OC)c([N+](=O)[O-])c1)C(=O)O", "note": "(centres unmarked)", "hERG current change (%, negative = inhibition) at 10uM": 13.8},
      {"smiles": "COc1ccc(-n2c(C)nc(N)c2C(=O)c2ccccc2)cc1", "hERG current change (%, negative = inhibition) at 10uM": -0.184},
      {"smiles": "O=C(OCc1nc2ccccc2s1)[C@@H]1CCCN1S(=O)(=O)c1ccccc1F", "hERG current change (%, negative = inhibition) at 10uM": -1.01},
      {"smiles": "O=C(Nc1cc(C(F)(F)F)cc(C(F)(F)F)c1)c1ccc(Cn2cc(C(F)(F)F)ccc2=O)cc1", "hERG current change (%, negative = inhibition) at 10uM": 22},
      {"smiles": "Cc1sc(NC(=O)c2ccco2)nc1-c1ccccc1", "hERG current change (%, negative = inhibition) at 10uM": -7.37},
      {"smiles": "COCCn1c(SCC(=O)NC(C)c2ccccc2)nc2ccccc21", "note": "(centres unmarked)", "hERG current change (%, negative = inhibition) at 10uM": -5.77},
      {"smiles": "O=C(CCn1cccc1)Nc1cccc(F)c1", "hERG current change (%, negative = inhibition) at 10uM": 0.101},
      {"smiles": "Cc1ccc(S(=O)(=O)c2nc(Cc3ccccc3)oc2N2CCOCC2)cc1", "hERG current change (%, negative = inhibition) at 10uM": -1.73},
      {"smiles": "CC(=O)c1cccc(NC(=O)c2ccc(C)o2)c1", "hERG current change (%, negative = inhibition) at 10uM": 10.1},
      {"smiles": "COc1cc(/C=C2\\SC(=S)N(NC(=O)c3ccncc3)C2=O)ccc1O", "hERG current change (%, negative = inhibition) at 10uM": 4.81},
      {"smiles": "Br.CCN(CC)CCn1c(=N)n(CC(=O)c2ccc(Br)s2)c2ccccc21", "hERG current change (%, negative = inhibition) at 10uM": -76.9},
      {"smiles": "O=C(Nc1ccncc1)C1CCN(S(=O)(=O)c2cccs2)CC1", "hERG current change (%, negative = inhibition) at 10uM": 5.26},
      {"smiles": "COc1ccc(-c2nnc(SC(C)C(=O)NC3CC3)o2)cc1", "note": "(centres unmarked)", "hERG current change (%, negative = inhibition) at 10uM": 8.81},
      {"smiles": "Cc1ccc(/C=C/C(=O)Nn2cnnc2)cc1", "hERG current change (%, negative = inhibition) at 10uM": 5.24},
      {"smiles": "COCC(C)N1CC(O)=C(c2nc(-c3ccc(Cl)cc3)cs2)C1=N", "note": "(centres unmarked)", "hERG current change (%, negative = inhibition) at 10uM": 19.9},
      {"smiles": "ON=C1CCN(c2ncc(C(F)(F)F)cc2Cl)CC1", "hERG current change (%, negative = inhibition) at 10uM": -11.7},
      {"smiles": "NNC(=O)c1oc2nc(-c3ccccc3)cc(-c3ccco3)c2c1N", "hERG current change (%, negative = inhibition) at 10uM": 0.558},
      {"smiles": "O=C(OCc1ccccc1)/C(=C/c1cccc2ccccc12)NC(=O)c1ccccc1", "hERG current change (%, negative = inhibition) at 10uM": 0.346},
      {"smiles": "O=C(CSc1ccc(F)cc1)NNC(=O)c1ccccc1Br", "hERG current change (%, negative = inhibition) at 10uM": 13},
      {"smiles": "CN1C(=O)C(=Cc2ccc(N3CCCCCC3)o2)C(=O)N(C)C1=S", "hERG current change (%, negative = inhibition) at 10uM": 6.46},
      {"smiles": "O=C(Nc1c(C(=O)N2CCOCC2)cnn1-c1ccccc1)c1cccc(F)c1", "hERG current change (%, negative = inhibition) at 10uM": 6.38},
      {"smiles": "O=C(CN(Cc1ccc(F)cc1)C(=O)c1csnn1)NCc1ccc2c(c1)OCO2", "hERG current change (%, negative = inhibition) at 10uM": -64.5},
      {"smiles": "COc1ccc(CNC(=O)[C@@H]2CC=C[C@@H]3CCN(Cc4ccccc4)C(=O)[C@@H]32)cc1", "hERG current change (%, negative = inhibition) at 10uM": 5.37},
      {"smiles": "CCC(C)N(C(=O)CSc1nc(C)nc2ccccc12)C1CCS(=O)(=O)C1", "note": "(centres unmarked)", "hERG current change (%, negative = inhibition) at 10uM": -30.1},
      {"smiles": "CCN(CC)S(=O)(=O)c1ccc(Cl)c(NC(=O)COC(=O)c2ccc([N+](=O)[O-])o2)c1", "hERG current change (%, negative = inhibition) at 10uM": -16.7},
      {"smiles": "Cc1ccc(-c2c(C#N)c(N)nc3c2CCCCC3)cc1", "hERG current change (%, negative = inhibition) at 10uM": 2.26},
      {"smiles": "COc1ccc(CN2CCCC(C(=O)c3cccc(C(F)(F)F)c3)C2)cc1O", "note": "(centres unmarked)", "hERG current change (%, negative = inhibition) at 10uM": -62.2},
      {"smiles": "CCOC(=O)N1CCN(C(=O)c2ccc(C)c(S(=O)(=O)Nc3cccc(C)c3C)c2)CC1", "hERG current change (%, negative = inhibition) at 10uM": -43.1},
      {"smiles": "O=C/C(=C\\Nc1ccc(C(=O)N2CCOCC2)cc1)c1nc2ccccc2o1", "hERG current change (%, negative = inhibition) at 10uM": -15.4},
      {"smiles": "COc1cccc(CNS(=O)(=O)c2ccc(S(=O)(=O)N3CCCC3)cc2)c1", "hERG current change (%, negative = inhibition) at 10uM": 7.51},
      {"smiles": "COC(=O)n1c(=O)oc2ccccc21", "hERG current change (%, negative = inhibition) at 10uM": 7.08},
      {"smiles": "CSc1nsc(NC(=O)OCc2ccc(Cl)cc2)n1", "hERG current change (%, negative = inhibition) at 10uM": 14.2},
      {"smiles": "CCn1c(SCC(=O)NC(=O)NC(C)(C)C)nc2ccccc21", "hERG current change (%, negative = inhibition) at 10uM": 4.41},
      {"smiles": "CCCNC(=O)C(Cc1ccc(OC)cc1)NC(=O)c1ccc(Cl)cc1", "note": "(centres unmarked)", "hERG current change (%, negative = inhibition) at 10uM": -3.23},
      {"smiles": "CCOC(=O)c1c(C)n(C)c2ccc(OC)c(NC(=O)CCN3CCC(Cc4ccccc4)CC3)c12", "hERG current change (%, negative = inhibition) at 10uM": -34.3},
      {"smiles": "COc1cc(O)cc2c1C(=O)OC(C)CCCC(=O)CCC/C=C\\2", "note": "(centres unmarked)", "hERG current change (%, negative = inhibition) at 10uM": 13.7},
      {"smiles": "CC1CC(NC(=O)C2C3CCC(O3)C2C(=O)O)CC(C)(C)C1", "note": "(centres unmarked)", "hERG current change (%, negative = inhibition) at 10uM": -0.116},
      {"smiles": "Cc1cc(C)c(NC(=O)c2ccccc2N(C)S(C)(=O)=O)c(C)c1", "hERG current change (%, negative = inhibition) at 10uM": 10.3},
      {"smiles": "N#CCC(=N)N1CCN(c2cccc(Cl)c2)CC1", "hERG current change (%, negative = inhibition) at 10uM": -42},
      {"smiles": "O=C(COc1ccc(S(=O)(=O)N2CCCCC2)cc1)NCc1cccnc1", "hERG current change (%, negative = inhibition) at 10uM": 3.06},
      {"smiles": "O=C(Nc1ccc(Cl)cc1)Nc1ccc(N2CCOCC2)cc1", "hERG current change (%, negative = inhibition) at 10uM": 16.6},
      {"smiles": "CC(=O)c1c(C)[nH]c(C(=O)Nc2ccccc2N2CCOCC2)c1C", "hERG current change (%, negative = inhibition) at 10uM": 0.917},
      {"smiles": "CC(=O)Nc1ccc(N/C=C(\\C#N)S(=O)(=O)c2ccc(Cl)cc2)cc1", "hERG current change (%, negative = inhibition) at 10uM": 12.6},
      {"smiles": "COc1ccc(/C=C2\\SC(=S)N(CCC(=O)NC3C=CS(=O)(=O)C3)C2=O)cc1", "note": "(centres unmarked)", "hERG current change (%, negative = inhibition) at 10uM": -3.89},
      {"smiles": "CN(CC(=O)Nc1ccccc1Br)C(=O)C(Cc1ccccc1)NC(=O)c1ccccc1", "note": "(centres unmarked)", "hERG current change (%, negative = inhibition) at 10uM": -16.8},
      {"smiles": "CS(=O)(=O)c1cnc(-c2cccnc2)nc1N", "hERG current change (%, negative = inhibition) at 10uM": 24.1},
      {"smiles": "O=Cc1ccccc1Oc1ccccc1", "hERG current change (%, negative = inhibition) at 10uM": 11.5},
      {"smiles": "COc1cc(CN2CCN(S(=O)(=O)c3ccc(NC(C)=O)cc3)CC2)cc(OC)c1O.O=C(O)C(=O)O", "hERG current change (%, negative = inhibition) at 10uM": -5.22},
      {"smiles": "CCOC(=O)c1c(NC(=O)COc2ccccc2)sc2c1CC(C)(C)NC2(C)C", "hERG current change (%, negative = inhibition) at 10uM": 14.3},
      {"smiles": "Cc1cccc(NC(=O)COC(=O)c2cc(C)n(C3CC3)c2C)c1", "hERG current change (%, negative = inhibition) at 10uM": -0.632},
      {"smiles": "COCCNC(=O)C(c1ccc(F)cc1)N(Cc1cccs1)C(=O)CCC(=O)Nc1ccccn1", "note": "(centres unmarked)", "hERG current change (%, negative = inhibition) at 10uM": 15.2},
      {"smiles": "COc1ccc(C(=O)NC(=S)Nc2cc(C)ccn2)cc1[N+](=O)[O-]", "hERG current change (%, negative = inhibition) at 10uM": 24.3},
      {"smiles": "CCc1ccc(NC(=O)C(CC)Sc2nc3cc4c(cc3c(=O)n2Cc2ccco2)OCO4)cc1", "note": "(centres unmarked)", "hERG current change (%, negative = inhibition) at 10uM": -9.39},
      {"smiles": "COc1ccccc1N1CCN(C(=O)c2cc(-c3ccc(Br)cc3)on2)CC1", "hERG current change (%, negative = inhibition) at 10uM": 22.2}
    ]}
  ]
}
